We go through 5 molecules from paper PMC8956578, “The inner side of yeast PCNA contributes to genome stability by mediating interactions with Rad18 and the replicative DNA polymerase δ” (Scientific Reports, 2022).

Sequences of proteins named here, by UniProt entry; tags and fusion partners are left off. A change or cut given only in a name is not applied to a line headed by its entry.
UniProt P15873: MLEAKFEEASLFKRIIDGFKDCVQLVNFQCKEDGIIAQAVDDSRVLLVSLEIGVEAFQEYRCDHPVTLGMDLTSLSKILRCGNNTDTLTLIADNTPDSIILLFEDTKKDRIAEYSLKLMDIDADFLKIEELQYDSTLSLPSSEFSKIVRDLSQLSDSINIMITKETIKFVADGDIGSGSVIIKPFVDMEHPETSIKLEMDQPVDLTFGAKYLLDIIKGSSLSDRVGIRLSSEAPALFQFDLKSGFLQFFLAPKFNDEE

Test [1] addresses L154A PCNA, purified (yeast) (UniProt P15873). The test is described as follows: native gel or EMSA; increasing concentrations of purified wild-type and mutant PCNA on a 12% non-denaturing polyacrylamide gel; both purified.
Test [2] concerns the target T1, Rad5, Gal4 DNA-binding domain fusion (pGBT9, pID623) (yeast) (UniProt P32849).
T1 sequence: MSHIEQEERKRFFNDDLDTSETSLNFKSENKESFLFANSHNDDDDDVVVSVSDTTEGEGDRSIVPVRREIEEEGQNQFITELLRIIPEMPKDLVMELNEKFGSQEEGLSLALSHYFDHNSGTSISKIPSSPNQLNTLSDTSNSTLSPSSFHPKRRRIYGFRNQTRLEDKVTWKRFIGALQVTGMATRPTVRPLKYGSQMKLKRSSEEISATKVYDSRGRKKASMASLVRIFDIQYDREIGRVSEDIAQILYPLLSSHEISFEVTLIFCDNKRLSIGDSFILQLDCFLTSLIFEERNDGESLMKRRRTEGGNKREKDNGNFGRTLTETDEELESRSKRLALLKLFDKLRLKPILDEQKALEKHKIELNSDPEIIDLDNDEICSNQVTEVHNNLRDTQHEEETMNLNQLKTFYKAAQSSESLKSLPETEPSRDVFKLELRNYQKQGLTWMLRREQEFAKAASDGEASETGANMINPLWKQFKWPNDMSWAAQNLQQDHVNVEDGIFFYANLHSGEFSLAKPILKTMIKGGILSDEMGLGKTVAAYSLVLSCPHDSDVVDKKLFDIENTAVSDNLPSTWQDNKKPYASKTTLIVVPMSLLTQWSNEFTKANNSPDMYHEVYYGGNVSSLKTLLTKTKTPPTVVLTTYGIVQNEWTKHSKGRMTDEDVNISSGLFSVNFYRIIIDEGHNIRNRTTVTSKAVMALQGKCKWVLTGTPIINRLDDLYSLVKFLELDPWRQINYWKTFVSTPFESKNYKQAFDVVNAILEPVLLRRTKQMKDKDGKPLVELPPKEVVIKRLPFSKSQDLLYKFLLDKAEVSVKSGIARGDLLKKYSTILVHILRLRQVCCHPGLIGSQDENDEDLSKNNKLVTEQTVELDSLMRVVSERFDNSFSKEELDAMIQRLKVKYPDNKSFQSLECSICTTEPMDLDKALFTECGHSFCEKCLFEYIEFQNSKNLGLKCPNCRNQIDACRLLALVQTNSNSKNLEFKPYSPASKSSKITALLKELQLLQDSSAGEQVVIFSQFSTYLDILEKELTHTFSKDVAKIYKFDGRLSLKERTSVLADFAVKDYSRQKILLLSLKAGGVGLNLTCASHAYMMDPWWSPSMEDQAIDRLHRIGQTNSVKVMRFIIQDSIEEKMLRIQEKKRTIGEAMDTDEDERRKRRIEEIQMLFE
Kind of test: two-hybrid; Gal4 binding and activation domain fusions co-transformed into PJ69-4A; growth on SC-leu/trp/his (HIS3 reporter); 3-AT added to test the strength of the interactions; 30 °C, 3-5 days.

The target in test [3] is T2, Apn2, Gal4 DNA-binding domain fusion (pGBT9, pID1159) (yeast) (UniProt P38207).
T2 sequence: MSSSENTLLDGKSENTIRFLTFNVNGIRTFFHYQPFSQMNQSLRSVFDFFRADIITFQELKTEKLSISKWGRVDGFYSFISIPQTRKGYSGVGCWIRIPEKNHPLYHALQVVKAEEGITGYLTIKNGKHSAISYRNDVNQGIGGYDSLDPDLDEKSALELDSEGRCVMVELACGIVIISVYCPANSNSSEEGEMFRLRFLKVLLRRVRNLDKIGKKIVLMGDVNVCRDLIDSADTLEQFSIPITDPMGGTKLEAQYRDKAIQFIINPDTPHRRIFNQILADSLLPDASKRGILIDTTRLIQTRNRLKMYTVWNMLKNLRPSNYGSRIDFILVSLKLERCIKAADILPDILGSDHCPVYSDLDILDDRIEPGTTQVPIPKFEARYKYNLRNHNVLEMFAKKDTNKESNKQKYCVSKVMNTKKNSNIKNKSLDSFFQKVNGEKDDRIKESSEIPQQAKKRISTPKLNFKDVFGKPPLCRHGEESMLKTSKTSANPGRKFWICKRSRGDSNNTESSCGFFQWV
Described as above.

Test [4] concerns the target L154A PCNA, Gal4 DNA-binding domain fusion (pGBT9, pID1005) (yeast) (UniProt P15873). The description is as above.
In test [5] the target is wild-type PCNA, Gal4 DNA-binding domain fusion (pGBT9, pID998) (yeast) (UniProt P15873). Described as above.

These are yes or no findings as the source states them, for the method shown. Some binding calls cover weakened binding; strength is not graded here. For part of these data: Where a sequence is shown, tags or fusion partners need not be part of it.

For the molecule “L154A PCNA, purified (from UniProt P15873 1-258)”, the binding result in test [1] is given as “no binding”.
Turning to “L154A PCNA, Gal4 activation domain fusion (pGAD424 + 1, pID1004) (from UniProt P15873 1-258)”, the binding result in test [2] and in test [3] was “binds” each time.
“wild-type PCNA, Gal4 activation domain fusion (pGAD424 + 1, pID999) (from UniProt P15873 1-258)”: the binding entry in test [2] and in test [3] was “binds” in each case.

B1: Rad18, Gal4 activation domain fusion (pGAD424 + 1, pID684) (protein, UniProt P10862 1-487)
chain: MDHQITTASDFTTTSIPSLYQLDTLLRCHICKDFLKVPVLTPCGHTFCSLCIRTHLNNQPNCPLCLFEFRESLLRSEFLVSEIIQSYTSLRSSLLDALRIPKPTPVPENEEVPGPENSSWIELISESESDSVNAADDDLQIVATSERKLAKRSMTDILPLSSKPSKRNFAMFRSERIKKKSKPNEQMAQCPICQQFYPLKALEKTHLDECLTLQSLGKKPKISTTFPTESNPHNKSSSRFKVRTPEVDKSSCGETSHVDKYLNSMMSAEHQRLPKINFTSMTQSQIKQKLSSLGLSTNGTRQNMIKRYNHYEMLWNSNFCDSLEPVDEAELKRQLLSWDVSHNKTPQNSSNKGGISKLMIMKSNGKSSSYRKLLENFKNDKFNRKGWMVMFRKDFARLIREAKMKIKTGSSDSSGSVGHSNDGDGVEKVQSDQGTEDQQMEKDQDTVINEDRVAGERNLPNEDSTDADLSRELMDLNEYSKDPPGNN
For B1, the binding entry in test [4] is “no binding”; in test [5] it was “binds”.

B2: Rad5, Gal4 activation domain fusion (pGAD424 + 1, pID145) (protein, UniProt P32849 1-1169)
chain: MSHIEQEERKRFFNDDLDTSETSLNFKSENKESFLFANSHNDDDDDVVVSVSDTTEGEGDRSIVPVRREIEEEGQNQFITELLRIIPEMPKDLVMELNEKFGSQEEGLSLALSHYFDHNSGTSISKIPSSPNQLNTLSDTSNSTLSPSSFHPKRRRIYGFRNQTRLEDKVTWKRFIGALQVTGMATRPTVRPLKYGSQMKLKRSSEEISATKVYDSRGRKKASMASLVRIFDIQYDREIGRVSEDIAQILYPLLSSHEISFEVTLIFCDNKRLSIGDSFILQLDCFLTSLIFEERNDGESLMKRRRTEGGNKREKDNGNFGRTLTETDEELESRSKRLALLKLFDKLRLKPILDEQKALEKHKIELNSDPEIIDLDNDEICSNQVTEVHNNLRDTQHEEETMNLNQLKTFYKAAQSSESLKSLPETEPSRDVFKLELRNYQKQGLTWMLRREQEFAKAASDGEASETGANMINPLWKQFKWPNDMSWAAQNLQQDHVNVEDGIFFYANLHSGEFSLAKPILKTMIKGGILSDEMGLGKTVAAYSLVLSCPHDSDVVDKKLFDIENTAVSDNLPSTWQDNKKPYASKTTLIVVPMSLLTQWSNEFTKANNSPDMYHEVYYGGNVSSLKTLLTKTKTPPTVVLTTYGIVQNEWTKHSKGRMTDEDVNISSGLFSVNFYRIIIDEGHNIRNRTTVTSKAVMALQGKCKWVLTGTPIINRLDDLYSLVKFLELDPWRQINYWKTFVSTPFESKNYKQAFDVVNAILEPVLLRRTKQMKDKDGKPLVELPPKEVVIKRLPFSKSQDLLYKFLLDKAEVSVKSGIARGDLLKKYSTILVHILRLRQVCCHPGLIGSQDENDEDLSKNNKLVTEQTVELDSLMRVVSERFDNSFSKEELDAMIQRLKVKYPDNKSFQSLECSICTTEPMDLDKALFTECGHSFCEKCLFEYIEFQNSKNLGLKCPNCRNQIDACRLLALVQTNSNSKNLEFKPYSPASKSSKITALLKELQLLQDSSAGEQVVIFSQFSTYLDILEKELTHTFSKDVAKIYKFDGRLSLKERTSVLADFAVKDYSRQKILLLSLKAGGVGLNLTCASHAYMMDPWWSPSMEDQAIDRLHRIGQTNSVKVMRFIIQDSIEEKMLRIQEKKRTIGEAMDTDEDERRKRRIEEIQMLFE
As to B2, the binding result in test [4] and in test [5] was “binds” each time.
